Measurements: patent US20100260668A1 (published 2010)

How the values were obtained:
HGF-His tag = molecular target: T1, HGF-His tag (UniProt P14210 32-728); assay: direct bind ELISA (N-term VD);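 note: ELISA screen of antibodies for binding to plate-immobilized target antigen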
T1 construct: Bought antigen coated on the ELISA plate; not shown: His tag

VEGF 1-165 aa = molecular target: T2, VEGF 1-165 aa (UniProt P15692 27-191); assay: direct bind ELISA (C-term VD)
T2 construct: Bought antigen coated on the ELISA plate
T2 sequence (looked up): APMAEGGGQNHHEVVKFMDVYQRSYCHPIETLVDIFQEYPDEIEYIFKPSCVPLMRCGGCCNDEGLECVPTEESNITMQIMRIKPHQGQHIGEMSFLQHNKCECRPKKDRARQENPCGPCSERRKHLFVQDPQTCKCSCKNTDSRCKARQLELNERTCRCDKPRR

DLL ECD His tag = molecular target: T3, DLL ECD His tag (UniProt Q9NR61 part only, limits assumed); assay: Biacore SPR
T3 construct: extracellular domain; Bought reagent; also called DLL4; DLL-4; not shown: His tag

VEGF = molecular target: T4, VEGF (UniProt P15692 27-191, limits assumed); assay: direct bind ELISA, C-terminal VD
T4 construct: bought antigen coated on the ELISA plate
T4 sequence (looked up): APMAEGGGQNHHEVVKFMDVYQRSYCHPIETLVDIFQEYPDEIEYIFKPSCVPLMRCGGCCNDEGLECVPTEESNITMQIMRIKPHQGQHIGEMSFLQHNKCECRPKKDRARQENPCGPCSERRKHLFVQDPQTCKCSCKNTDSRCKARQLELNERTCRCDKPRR

PlGF = molecular target: T5, PlGF (UniProt P49763-2 21-149, limits assumed); assay: direct bind ELISA, N-terminal VD
T5 construct: bought antigen coated on the ELISA plate; also called Placental GF
T5 sequence (looked up): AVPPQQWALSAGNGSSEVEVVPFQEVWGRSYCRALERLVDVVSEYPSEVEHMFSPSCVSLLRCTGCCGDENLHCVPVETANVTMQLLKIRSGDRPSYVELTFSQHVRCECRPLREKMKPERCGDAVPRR

HGF-His tag, sequence (P14210 32-728 limits assumed): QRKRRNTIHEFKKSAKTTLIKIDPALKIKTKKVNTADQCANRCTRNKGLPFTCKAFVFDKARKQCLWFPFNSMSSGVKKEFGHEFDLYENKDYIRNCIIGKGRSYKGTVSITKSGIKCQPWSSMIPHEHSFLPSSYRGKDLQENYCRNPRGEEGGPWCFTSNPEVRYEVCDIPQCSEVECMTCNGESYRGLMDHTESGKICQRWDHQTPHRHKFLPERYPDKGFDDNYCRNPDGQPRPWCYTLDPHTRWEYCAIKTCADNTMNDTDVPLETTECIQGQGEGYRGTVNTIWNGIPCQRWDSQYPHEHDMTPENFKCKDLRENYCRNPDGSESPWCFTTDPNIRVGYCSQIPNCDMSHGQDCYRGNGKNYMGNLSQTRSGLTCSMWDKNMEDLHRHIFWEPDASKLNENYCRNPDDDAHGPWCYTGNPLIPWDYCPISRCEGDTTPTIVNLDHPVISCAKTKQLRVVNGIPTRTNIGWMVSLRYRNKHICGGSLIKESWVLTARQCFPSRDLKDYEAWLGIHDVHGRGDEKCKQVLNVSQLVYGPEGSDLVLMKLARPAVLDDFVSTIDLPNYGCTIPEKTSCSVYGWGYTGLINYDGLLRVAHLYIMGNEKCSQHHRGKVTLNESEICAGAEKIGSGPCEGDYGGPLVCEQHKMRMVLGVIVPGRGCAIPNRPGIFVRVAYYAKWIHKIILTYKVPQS

B1: DVD653 (bispecific antibody, human IgG1, kappa)
heavy: QVQLVESGGGLVKPGGSLRLSCAASGFTFSDYYMSWIRQAPGKGLEWVSYISSSGSTIYYADSVKGRFTISRDNAKNSLYLQMNSLRAEDTAVYYCARDEYNSGWYVLFDYWGQGTLVTVSSASTKGPEVQLVESGGGLVQPGGSLRLSCAASGYTFTNYGMNWVRQAPGKGLEWVGWINTYTGEPTYAADFKRRFTFSLDTSKSTAYLQMNSLRAEDTAVYYCAKYPHYYGSSHWYFDVWGQGTLVTVSS[omitted - human IgG1 constant region]
light: DIQMTQSPSSVSASVGDRVTITCRASQGISSWLAWYQQKPGKAPNLLIYEASSLQSGVPSRFGGSGSGTDFTLTISSLQPEDFATYYCQQANGFPWTFGQGTKVEIKRTVAAPSVFIFPPDIQMTQSPSSLSASVGDRVTITCSASQDISNYLNWYQQKPGKAPKVLIYFTSSLHSGVPSRFSGSGSGTDFTLTISSLQPEDFATYYCQQYSTVPWTFGQGTKVEIKRTVAAPSVFIFPPSDEQLKSGTASVVCLLNNFYPREAKVQWKVDNALQSGNSQESVTEQDSKDSTYSLSSTLTLSKADYEKHKVYACEVTHQGLSSPVTKSFNRGEC
notes: DVD-Ig; HC linker short, LC linker long; vectors V1/V2
HGF-His tag
  EC50: 0.24 nM
VEGF 1-165 aa
  EC50: 16.8 nM

B2: DVD659 (bispecific antibody, human IgG1, kappa)
heavy: EVQLVQSGAEVKKPGESLKISCKGSGYSFTTYWMHWVRQMPGKGLEWMGEINPTNGHTNYNPSFQGQVTISADKSISTAYLQWSSLKASDTAMYYCARNYVGSIFDYWGQGTLVTVSSASTKGPEVQLVESGGGLVQPGGSLRLSCAASGYTFTNYGMNWVRQAPGKGLEWVGWINTYTGEPTYAADFKRRFTFSLDTSKSTAYLQMNSLRAEDTAVYYCAKYPHYYGSSHWYFDVWGQGTLVTVSS[omitted - human IgG1 constant region]
light: DIQMTQSPSSLSASVGDRVTITCKASENVVSYVSWYQQKPGKAPKLLIYGASNRNTGVPSRFSGSGSGTDFTLTISSLQPEDFATYYCGQSYNYPYTFGQGTKLEIKRTVAAPDIQMTQSPSSLSASVGDRVTITCSASQDISNYLNWYQQKPGKAPKVLIYFTSSLHSGVPSRFSGSGSGTDFTLTISSLQPEDFATYYCQQYSTVPWTFGQGTKVEIKRTVAAPSVFIFPPSDEQLKSGTASVVCLLNNFYPREAKVQWKVDNALQSGNSQESVTEQDSKDSTYSLSSTLTLSKADYEKHKVYACEVTHQGLSSPVTKSFNRGEC
notes: DVD-Ig; HC linker short, LC linker short; vectors V1/V2
HGF-His tag
  EC50: 0.4 nM
VEGF 1-165 aa
  EC50: 161 nM

B3: DVD665 (bispecific antibody, human IgG1, kappa)
heavy: EVQLVQSGAEVKKPGESLKISCKGSGYSFTTYWMHWVRQMPGKGLEWMGEINPTNGHTNYNPSFQGQVTISADKSISTAYLQWSSLKASDTAMYYCARNYVGSIFDYWGQGTLVTVSSASTKGPSVFPLAPEVQLVESGGGLVQPGGSLRLSCAASGYTFTNYGMNWVRQAPGKGLEWVGWINTYTGEPTYAADFKRRFTFSLDTSKSTAYLQMNSLRAEDTAVYYCAKYPHYYGSSHWYFDVWGQGTLVTVSS[omitted - human IgG1 constant region]
light: DIQMTQSPSSLSASVGDRVTITCKASENVVSYVSWYQQKPGKAPKLLIYGASNRNTGVPSRFSGSGSGTDFTLTISSLQPEDFATYYCGQSYNYPYTFGQGTKLEIKRTVAAPSVFIFPPDIQMTQSPSSLSASVGDRVTITCSASQDISNYLNWYQQKPGKAPKVLIYFTSSLHSGVPSRFSGSGSGTDFTLTISSLQPEDFATYYCQQYSTVPWTFGQGTKVEIKRTVAAPSVFIFPPSDEQLKSGTASVVCLLNNFYPREAKVQWKVDNALQSGNSQESVTEQDSKDSTYSLSSTLTLSKADYEKHKVYACEVTHQGLSSPVTKSFNRGEC
notes: DVD-Ig; HC linker long, LC linker long; vectors V1/V2
HGF-His tag
  EC50: 0.23 nM
VEGF 1-165 aa
  EC50: 8.09 nM

B4: DVD671 (bispecific antibody, human IgG1, kappa)
heavy: EVQLVQSGAEVKKPGESLKISCKGSGYSFTTYWMHWVRQMPGKGLEWMGEINPTNGHTNYNPSFQGQVTISADKSISTAYLQWSSLKASDTAMYYCARNYVGSIFDYWGQGTLVTVSSASTKGPSVFPLAPEVQLVESGGGLVQPGGSLRLSCAASGYTFTNYGMNWVRQAPGKGLEWVGWINTYTGEPTYAADFKRRFTFSLDTSKSTAYLQMNSLRAEDTAVYYCAKYPHYYGSSHWYFDVWGQGTLVTVSS[omitted - human IgG1 constant region]
light: DIQMTQSPSSLSASVGDRVTITCKASENVVSYVSWYQQKPGKAPKLLIYGASNRNTGVPSRFSGSGSGTDFTLTISSLQPEDFATYYCGQSYNYPYTFGQGTKLEIKRTVAAPDIQMTQSPSSLSASVGDRVTITCSASQDISNYLNWYQQKPGKAPKVLIYFTSSLHSGVPSRFSGSGSGTDFTLTISSLQPEDFATYYCQQYSTVPWTFGQGTKVEIKRTVAAPSVFIFPPSDEQLKSGTASVVCLLNNFYPREAKVQWKVDNALQSGNSQESVTEQDSKDSTYSLSSTLTLSKADYEKHKVYACEVTHQGLSSPVTKSFNRGEC
notes: DVD-Ig; HC linker long, LC linker short; vectors V1/V2
HGF-His tag
  EC50: 0.35 nM
VEGF 1-165 aa
  EC50: 28.8 nM

B5: DVD677 (bispecific antibody, human IgG1, kappa)
heavy: EVQLVQSGAEVKKPGESLKISCKGSGYSFTTYWMHWVRQMPGKGLEWMGEINPTNGHTNYNPSFQGQVTISADKSISTAYLQWSSLKASDTAMYYCARNYVGSIFDYWGQGTLVTVSSASTKGPEVQLVESGGGLVQPGGSLRLSCAASGYTFTNYGMNWVRQAPGKGLEWVGWINTYTGEPTYAADFKRRFTFSLDTSKSTAYLQMNSLRAEDTAVYYCAKYPHYYGSSHWYFDVWGQGTLVTVSS[omitted - human IgG1 constant region]
light: DIQMTQSPSSLSASVGDRVTITCKASENVVSYVSWYQQKPGKAPKLLIYGASNRNTGVPSRFSGSGSGTDFTLTISSLQPEDFATYYCGQSYNYPYTFGQGTKLEIKRTVAAPSVFIFPPDIQMTQSPSSLSASVGDRVTITCSASQDISNYLNWYQQKPGKAPKVLIYFTSSLHSGVPSRFSGSGSGTDFTLTISSLQPEDFATYYCQQYSTVPWTFGQGTKVEIKRTVAAPSVFIFPPSDEQLKSGTASVVCLLNNFYPREAKVQWKVDNALQSGNSQESVTEQDSKDSTYSLSSTLTLSKADYEKHKVYACEVTHQGLSSPVTKSFNRGEC
notes: as for B1
HGF-His tag
  EC50: 0.33 nM
VEGF 1-165 aa
  EC50: 1.02 nM

B6: DVD044 (bispecific antibody, human IgG1, kappa)
heavy: EVQLVESGGGLVQPGGSLRLSCAASGFTFTDNWISWVRQAPGKGLEWVGYISPNSGFTYYADSVKGRFTISADTSKNTAYLQMNSLRAEDTAVYYCARDNFGGYFDYWGQGTLVTVSSASTKGPEVQLVESGGGLVQPGGSLRLSCAASGYTFTNYGMNWVRQAPGKGLEWVGWINTYTGEPTYAADFKRRFTFSLDTSKSTAYLQMNSLRAEDTAVYYCAKYPHYYGSSHWYFDVWGQGTLVTVSS[omitted - human IgG1 constant region]
light: DIQMTQSPSSLSASVGDRVTITCRASQDVSTAVAWYQQKPGKAPKLLIYSASFLYSGVPSRFSGSGSGTDFTLTISSLQPEDFATTYYCQQSYTGTVTFGQGTKVEIKRTVAAPDIQMTQSPSSLSASVGDRVTITCSASQDISNYLNWYQQKPGKAPKVLIYFTSSLHSGVPSRFSGSGSGTDFTLTISSLQPEDFATYYCQQYSTVPWTFGQGTKVEIKRTVAAPSVFIFPPSDEQLKSGTASVVCLLNNFYPREAKVQWKVDNALQSGNSQESVTEQDSKDSTYSLSSTLTLSKADYEKHKVYACEVTHQGLSSPVTKSFNRGEC
notes: N-terminal VD DLL4, C-terminal VD VEGF; also called DVD044H; DVD044L
DLL ECD His tag
  Kd: 0.347 nM
  koff: 0.000205 s⁻¹
  kon: 590000 M⁻¹ s⁻¹

B7: DVD541 (bispecific antibody, human IgG1, kappa)
heavy: QVQLKQSGPGLVQPSQSLSITCTVSGFSLTTYGIHWVRQSPGKGLEWLGVMWSGGDTDYDAAFISRLSISKDNSKSQVFFKMNSLQANDTGIYYCARYRFYGMDYWGQGTSVTVSSASTKGPEVQLVESGGGLVQPGGSLRLSCAASGYTFTNYGMNWVRQAPGKGLEWVGWINTYTGEPTYAADFKRRFTFSLDTSKSTAYLQMNSLRAEDTAVYYCAKYPHYYGSSHWYFDVWGQGTLVTVSS[omitted - human IgG1 constant region]
light: AIQMTQSSSSFSVSLGDRVTITCKASEDIYNRFAWYQQKPGNAPRLLISGAASLEAGVPSRFSGSGSGQDYTLSITSLQTEDVATYYCQQYWSTPWTFGGGTKLEIKRTVAAPDIQMTQSPSSLSASVGDRVTITCSASQDISNYLNWYQQKPGKAPKVLIYFTSSLHSGVPSRFSGSGSGTDFTLTISSLQPEDFATYYCQQYSTVPWTFGQGTKVEIKRTVAAPSVFIFPPSDEQLKSGTASVVCLLNNFYPREAKVQWKVDNALQSGNSQESVTEQDSKDSTYSLSSTLTLSKADYEKHKVYACEVTHQGLSSPVTKSFNRGEC
notes: HC linker short, LC linker short; also called DVD-Ig DVD541
VEGF
  EC50: 64.4 nM
PlGF
  EC50: 0.08 nM

B8: DVD549 (bispecific antibody, human IgG1, kappa)
heavy: QVQLKQSGPGLVQPSQSLSITCTVSGFSLTTYGIHWVRQSPGKGLEWLGVMWSGGDTDYDAAFISRLSISKDNSKSQVFFKMNSLQANDTGIYYCARYRFYGMDYWGQGTSVTVSSASTKGPSVFPLAPEVQLVESGGGLVQPGGSLRLSCAASGYTFTNYGMNWVRQAPGKGLEWVGWINTYTGEPTYAADFKRRFTFSLDTSKSTAYLQMNSLRAEDTAVYYCAKYPHYYGSSHWYFDVWGQGTLVTVSS[omitted - human IgG1 constant region]
light: AIQMTQSSSSFSVSLGDRVTITCKASEDIYNRFAWYQQKPGNAPRLLISGAASLEAGVPSRFSGSGSGQDYTLSITSLQTEDVATYYCQQYWSTPWTFGGGTKLEIKRTVAAPSVFIFPPDIQMTQSPSSLSASVGDRVTITCSASQDISNYLNWYQQKPGKAPKVLIYFTSSLHSGVPSRFSGSGSGTDFTLTISSLQPEDFATYYCQQYSTVPWTFGQGTKVEIKRTVAAPSVFIFPPSDEQLKSGTASVVCLLNNFYPREAKVQWKVDNALQSGNSQESVTEQDSKDSTYSLSSTLTLSKADYEKHKVYACEVTHQGLSSPVTKSFNRGEC
notes: HC linker long, LC linker long; also called DVD-Ig DVD549
PlGF
  EC50: 265 nM
